This note sets out measurements from publication PMC4969574 (The EMBO Journal, 2016).

The chains behind the UniProt entries cited, without tags or fusion partners.
UniProt Q9I745: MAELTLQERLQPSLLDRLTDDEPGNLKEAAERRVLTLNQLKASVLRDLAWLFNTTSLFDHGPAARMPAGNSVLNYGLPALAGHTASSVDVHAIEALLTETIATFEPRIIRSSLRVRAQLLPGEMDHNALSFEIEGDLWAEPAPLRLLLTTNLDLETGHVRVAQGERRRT

Where two headings read alike, the source gives them in different places. These are yes or no findings as the source states them, for the method shown. For some assays here: Binding seen in cells or lysates may run through a third protein. Some binding calls cover weakened binding; strength is not graded here. For some assays here: Sequences can lack the tags named with a protein.

Experiment [1] has as its target His6-TssA1(1-245) (P. aeruginosa) (UniProt Q9I750). The experiment in a line: cross-linking; about 30 μg purified protein, EGS 2 and 5 mM, room temperature, 30 min, 1 or 2 h, 50 mM NaH2PO4 pH 7.5, 150 mM NaCl; 3-12% SDS-PAGE, anti-His6 Western blot; both purified.
Experiment [2] has the same target. In words: SEC-MALS; His6-TssA1(1-245) on Superdex 200 10/300, room temperature, 25 mM Tris-HCl pH 7.5, 150 mM NaCl; both purified.
Experiment [3] shares this target. In words: AUC; sedimentation velocity of TssA1(1-245) at 1.6, 1.2 and 0.8 mg/ml, 50,000 rpm, 20 °C, 25 mM Tris-HCl pH 7.5, 200 mM NaCl; c(s) by SEDFIT; both purified.
Experiment [4] has as its target T1, TssA1 fused to the adenylate cyclase T25 or T18 subunit (P. aeruginosa) (UniProt Q9I750).
T1 sequence: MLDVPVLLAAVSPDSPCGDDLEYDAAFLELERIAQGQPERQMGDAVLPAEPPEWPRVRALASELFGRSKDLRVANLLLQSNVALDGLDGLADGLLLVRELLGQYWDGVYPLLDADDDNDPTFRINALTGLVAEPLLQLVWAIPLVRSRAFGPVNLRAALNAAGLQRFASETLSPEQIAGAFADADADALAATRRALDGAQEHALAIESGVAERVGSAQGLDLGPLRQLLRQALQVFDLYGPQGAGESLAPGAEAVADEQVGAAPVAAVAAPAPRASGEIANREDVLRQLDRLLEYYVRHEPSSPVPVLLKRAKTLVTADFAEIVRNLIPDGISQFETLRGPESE
In words: two-hybrid; bacterial two-hybrid (BTH), T25 and T18 adenylate cyclase fusions in E. coli DHM1; β-galactosidase activity in Miller units and X-gal LB agar plates.

Experiment [5] has as its target T2, His6-TssA1 co-produced with TssB1C1 (P. aeruginosa) (UniProt Q9I750).
T2 sequence: T1 sequence
In words: pull-down; Ni-NTA co-purification of His6-TssA1 and untagged TssB1C1 co-expressed in E. coli; Western blot with anti-His6 and anti-TssB1.

For experiment [6], the target named is T2, His6-TssA1 co-produced with TssB1C1 (P. aeruginosa). In words: SEC; Ni-NTA eluate of co-expressed His6-TssA1 and TssB1C1 on Superdex 200 10/300, 25 mM Tris-HCl pH 7.5, 150 mM NaCl; SDS-PAGE of the elution fraction; both purified.
The target is the same in experiment [7]. In words: Ni-NTA nanogold labelling with negative stain electron microscopy; SEC fractions of co-purified His6-TssA1 and TssB1C1 incubated on ice with Ni-NTA nanogold, unbound gold removed by SEC, negative stain EM; both purified.
Experiment [8] has as its target T1, TssA1 fused to the adenylate cyclase T25 or T18 subunit (P. aeruginosa). In words: two-hybrid; bacterial two-hybrid (BTH), T25 and T18 adenylate cyclase fusions in E. coli DHM1; β-galactosidase activity in Miller units and X-gal LB agar plates. The source holds these as a separate data set.

Regarding “His6-TssA1(1-245) (from UniProt Q9I750 1-245) (domain or fragment)”, the binding result in experiment [1] was “no binding”; in experiment [2], “no binding”; in experiment [3] it was “no binding (tested: 1.6, 1.2 and 0.8 mg/ml)”.
On to “TssE1 fused to the adenylate cyclase T25 or T18 subunit (from UniProt Q9I745 1-169)”, for which the binding entry in experiment [4] was “no binding”.

B1: TssB1C1 sheath (complex, UniProt Q9I749 1-172; Q9I748 1-498)
chain 1: MGSTTSSQKFIARNRAPRVQIEYDVELYGAEKKVQLPFVMGVMADLAGKPAEPQAAVADRKFLEIDVDNFDARLKAMKPRVAFNVPNVLTGEGNLSLDITFESMDDFSPAAVARKVDSLNKLLEARTQLANLLTYMDGKTGAEEMIMKAIKDPALLQALASAPKPKDDEPQA
chain 2: MAELSTENLAQGQTTTEQTSEFASLLLQEFKPKTERAREAVETAVRTLAEHALEQTSLISNDAIKSIESIIAALDAKLTAQVNLIMHHADFQQLESAWRGLHYLVNNTETDEQLKIRVLNISKPELHKTLKKFKGTTWDQSPIFKKLYEEEYGQFGGEPYGCLVGDYYFDQSPPDVELLGEMAKISAAMHAPFISAASPTVMGMGSWQELSNPRDLTKIFTTPEYAGWRSLRESEDSRYIGLTMPRFLARLPYGAKTDPVEEFAFEEETDGADSSKYAWANSAYAMAVNINRSFKLYGWCSRIRGVESGGEVQGLPAHTFPTDDGGVDMKCPTEIAISDRREAELAKNGFMPLLHKKNTDFAAFIGAQSLQKPAEYDDPDATANANLAARLPYLFATCRFAHYLKCIVRDKIGSFKEKDEMQRWLQDWILNYVDGDPAHSTETTKAQHPLAAAEVVVEEVEGNPGYYNSKFFLRPHYQLEGLTVSLRLVSKLPSAKEA
Take B1: the binding entry in experiment [5], in experiment [6] and in experiment [7] was “binds” throughout.

B2: His6-TssA1 (natural protein)
chain: T1 sequence
Turning to B2, in experiment [8], the binding result is “binds”.
